Source: article PMC12820563, “FoxP3 forms a head-to-head dimer in vivo and stabilizes its multimerization on adjacent microsatellites”
The list shows a part of the results.

Target: T1, MBP-FoxP1dN (Mus musculus, UniProt P58462 326-579)
T1 sequence: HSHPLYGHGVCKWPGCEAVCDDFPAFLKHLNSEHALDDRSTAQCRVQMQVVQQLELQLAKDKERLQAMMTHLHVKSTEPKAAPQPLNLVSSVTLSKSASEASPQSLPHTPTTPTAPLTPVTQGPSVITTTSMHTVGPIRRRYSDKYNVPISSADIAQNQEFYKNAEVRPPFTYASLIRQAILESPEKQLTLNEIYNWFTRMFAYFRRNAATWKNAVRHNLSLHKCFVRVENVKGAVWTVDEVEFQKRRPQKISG
Experiment: PD-seq (MBP pull-down with sequencing); 20 mM Tris-HCl pH 7.5, 100 mM NaCl, 1.5 mM MgCl2, 0.4 uM protein, 0.1 uM dsDNA library, 30 min, room temperature, amylose pull-down; high values mean tight binding
Conditions: protein: recombinant; tags: His6-MBP; chain copies: 2; dsDNA, one strand shown
Outline: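 Amylose resin was used to capture complexes formed during 30 min at room temperature in Tris pH 7.5 buffer with NaCl and MgCl2 between 0.4 µM His6-MBP-tagged mouse FoxP3 or FoxP1 fragment lacking the N-terminus, expressed in E. coli, and 0.1 µM Klenow-filled double-stranded degenerate DNA library. After three washes, the DNA was released with proteinase K, barcoded by PCR and sequenced on Illumina. Binding is pooled-replicate reads-per-million enrichment, pull-down over input.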

Sequence	binding signal
GATGATTGTTCTCCCAGCTGATGAATTGCACTTATCGAGTAAACAAATTTTCCTAATCTTTCTGTTCAAGCGCCATCTAC	1.29 RPM ratio (pull-down/input)
GATGATTGTTCTCCCAGCTGATGAATTAAATAATTCGAGTAAACAAATTTTCCTAATCTTTCTGTTCAAGCGCCATCTAC	1.3 RPM ratio (pull-down/input)
GATGATTGTTCTCCCAGCTGATGAATTACCATAATCGAGTAAACAAATTTTCCTAATCTTTCTGTTCAAGCGCCATCTAC	1.42 RPM ratio (pull-down/input)
GATGATTGTTCTCCCAGCTGATGAATTGGTGGTATCGAGTAAACAAATTTTCCTAATCTTTCTGTTCAAGCGCCATCTAC	1.03 RPM ratio (pull-down/input)
GATGATTGTTCTCCCAGCTGATGAATTGCTCCTGTCGAGTAAACAAATTTTCCTAATCTTTCTGTTCAAGCGCCATCTAC	0.929 RPM ratio (pull-down/input)
GATGATTGTTCTCCCAGCTGATGAATTCGCTCCGTCGAGTAAACAAATTTTCCTAATCTTTCTGTTCAAGCGCCATCTAC	0.904 RPM ratio (pull-down/input)
GATGATTGTTCTCCCAGCTGATGAATTACTCTTATCGAGTAAACAAATTTTCCTAATCTTTCTGTTCAAGCGCCATCTAC	1.1 RPM ratio (pull-down/input)
GATGATTGTTCTCCCAGCTGATGAATTGTACGAATCGAGTAAACAAATTTTCCTAATCTTTCTGTTCAAGCGCCATCTAC	1.02 RPM ratio (pull-down/input)
GATGATTGTTCTCCCAGCTGATGAATTCTTGGCATCGAGTAAACAAATTTTCCTAATCTTTCTGTTCAAGCGCCATCTAC	1.03 RPM ratio (pull-down/input)
GATGATTGTTCTCCCAGCTGATGAATTACCCACTTCGAGTAAACAAATTTTCCTAATCTTTCTGTTCAAGCGCCATCTAC	0.978 RPM ratio (pull-down/input)
GATGATTGTTCTCCCAGCTGATGAATTGAACCACTCGAGTAAACAAATTTTCCTAATCTTTCTGTTCAAGCGCCATCTAC	0.821 RPM ratio (pull-down/input)
GATGATTGTTCTCCCAGCTGATGAATTATGACGTTCGAGTAAACAAATTTTCCTAATCTTTCTGTTCAAGCGCCATCTAC	1.02 RPM ratio (pull-down/input)
GATGATTGTTCTCCCAGCTGATGAATTGTGCTGATCGAGTAAACAAATTTTCCTAATCTTTCTGTTCAAGCGCCATCTAC	1.18 RPM ratio (pull-down/input)
GATGATTGTTCTCCCAGCTGATGAATTCATGCTATCGAGTAAACAAATTTTCCTAATCTTTCTGTTCAAGCGCCATCTAC	1 RPM ratio (pull-down/input)
GATGATTGTTCTCCCAGCTGATGAATTCTAGCCATCGAGTAAACAAATTTTCCTAATCTTTCTGTTCAAGCGCCATCTAC	0.949 RPM ratio (pull-down/input)
GATGATTGTTCTCCCAGCTGATGAATTGCACACCTCGAGTAAACAAATTTTCCTAATCTTTCTGTTCAAGCGCCATCTAC	1.13 RPM ratio (pull-down/input)

Sequence	binding signal
GATGATTGTTCTCCCAGCTGATGAATTAATCCAATCGAGTAAACAAATTTTCCTAATCTTTCTGTTCAAGCGCCATCTAC	1.06 RPM ratio (pull-down/input)
GATGATTGTTCTCCCAGCTGATGAATTGATTCCGTCGAGTAAACAAATTTTCCTAATCTTTCTGTTCAAGCGCCATCTAC	0.955 RPM ratio (pull-down/input)
GATGATTGTTCTCCCAGCTGATGAATTCCATGGATCGAGTAAACAAATTTTCCTAATCTTTCTGTTCAAGCGCCATCTAC	0.841 RPM ratio (pull-down/input)
GATGATTGTTCTCCCAGCTGATGAATTTTTGACGTCGAGTAAACAAATTTTCCTAATCTTTCTGTTCAAGCGCCATCTAC	0.91 RPM ratio (pull-down/input)
GATGATTGTTCTCCCAGCTGATGAATTATCTGATTCGAGTAAACAAATTTTCCTAATCTTTCTGTTCAAGCGCCATCTAC	0.984 RPM ratio (pull-down/input)
GATGATTGTTCTCCCAGCTGATGAATTATCCGCTTCGAGTAAACAAATTTTCCTAATCTTTCTGTTCAAGCGCCATCTAC	0.911 RPM ratio (pull-down/input)
GATGATTGTTCTCCCAGCTGATGAATTGATTTATTCGAGTAAACAAATTTTCCTAATCTTTCTGTTCAAGCGCCATCTAC	1.27 RPM ratio (pull-down/input)
GATGATTGTTCTCCCAGCTGATGAATTTGCTTCATCGAGTAAACAAATTTTCCTAATCTTTCTGTTCAAGCGCCATCTAC	1.11 RPM ratio (pull-down/input)
GATGATTGTTCTCCCAGCTGATGAATTTAGATGTTCGAGTAAACAAATTTTCCTAATCTTTCTGTTCAAGCGCCATCTAC	1.19 RPM ratio (pull-down/input)
GATGATTGTTCTCCCAGCTGATGAATTGGGATTTTCGAGTAAACAAATTTTCCTAATCTTTCTGTTCAAGCGCCATCTAC	1.01 RPM ratio (pull-down/input)
GATGATTGTTCTCCCAGCTGATGAATTTGGCTATTCGAGTAAACAAATTTTCCTAATCTTTCTGTTCAAGCGCCATCTAC	0.942 RPM ratio (pull-down/input)
GATGATTGTTCTCCCAGCTGATGAATTACAAACTTCGAGTAAACAAATTTTCCTAATCTTTCTGTTCAAGCGCCATCTAC	1.43 RPM ratio (pull-down/input)
GATGATTGTTCTCCCAGCTGATGAATTTCCTTTGTCGAGTAAACAAATTTTCCTAATCTTTCTGTTCAAGCGCCATCTAC	0.853 RPM ratio (pull-down/input)
GATGATTGTTCTCCCAGCTGATGAATTCATGCGGTCGAGTAAACAAATTTTCCTAATCTTTCTGTTCAAGCGCCATCTAC	0.86 RPM ratio (pull-down/input)
GATGATTGTTCTCCCAGCTGATGAATTGTACGTCTCGAGTAAACAAATTTTCCTAATCTTTCTGTTCAAGCGCCATCTAC	0.926 RPM ratio (pull-down/input)
GATGATTGTTCTCCCAGCTGATGAATTTAGCTGGTCGAGTAAACAAATTTTCCTAATCTTTCTGTTCAAGCGCCATCTAC	0.885 RPM ratio (pull-down/input)
